In all, about 4,500 sequences were measured (“median log2 fold change of GCK-ALFA target abundance (FLAG IP / Myc IP barcode read proportion)”: median about 0.078, lowest 2% from about -0.6 on). This is one part of the list.

The chains are these.
B1: GBRAP_11_2874 (protein)
chain: KKEKLKKMKELAEKLAKALKRLLEEGVDNEELRKEIRELVKELKKLVEEYGDPAEKKLVEILAELVEEAEEDPENAEQYVKEALAAAQVLAGQYLLKLEE
B2: GBRAP_83_6919 (protein)
chain: KEEIVVAGPGDRAEEMADIVIDLTKEEGYEVDVEIIVTKEEKEKVLEMVKRLAEAGIETKITILAKGMTEEEAEELKKKLEEIAKEHGVKIEIEVYVIEE
B3: GBRAP_52_6061 (protein)
chain: SEEKIKKLAEEIYKKIKAGDLEGALKLLEEAVEELSKEEITELLKLTAKLVAKGNDEQHELFVELLDEFEDIMIEKGISEEEALIIVGEAEATLAKEVAK
B4: GBRAP_52_6294 (protein)
chain: SMEEVEKKAKEIVELVKEGKLEEAIELAKKFVEENSLEEALELGKLLIEKIEELTPEEAELMLEVIEALAEEIEKEFGAEEEADILEAEAAAAAYKVLQK
B5: GBRAP_160_4712 (protein)
chain: SEVAEELKKYVEEEFKKAKELIKGETIEQRAIIVEGTIGEIIMELFENPEASDELIDEVDKIGDELVEYIKKNPDLTEEEIEELIDEATKKIKEAIEKYV
B6: GBRAP_11_2822 (protein)
chain: EKEKLKELAKKARELAKEIEKLIKSGNVTEEELKELLKKAKELLKFTEEYGDKDKAKLAKIALENIEEAIKNKENLKEYLENALAAVRVLEGDYLLDYEE
B7: GBRAP_160_4020 (protein)
chain: SEEREKLIEEIRELIEETKEEIKGLSPEERLTLVRGMTGEIIQLAEESPVISDETEDKIAEIADETIKRFEANKNASLEEWEKLLEEFLEEIEELIKEEE
B8: GBRAP_74_6502 (protein)
chain: QEARLAAARAAATLEEVLALLDWAVAHIDELDQETLDAIARRAAAAIERAMAAGDWEGLRRLVEAAERLLVALPGERLNAAVAELIAAMQRAEALLAAQE
B9: GBRAP_128_3400 (protein)
chain: MQEELLKEAKELIDKIVEADVEEARKYAEELMELLKKMNKETREEVAEYLKEKLPELTAEKLEVVADVFRENRPKDDPELANIVADMEVEALNEAVEKEE
B10: GBRAP_42_5730 (protein)
chain: MLAITLEIVAETQEEALRMVRAALEEDERLLEERGVVVEIEVAVPEGLSPEILELVERSRERAEEADHESEWVGVANTLEEVPRTIRAVADEALEALEEE
B11: GBRAP_52_5859 (protein)
chain: MVEEAVELLKKAIEAMKEGKEEEAKEILKEIVENFDEETIVAAAEKLAEEMEGWSKEDAEAAFKTAELLGKILEEAGYDEEVVTLIEDTIGAAVARVEAR
B12: GBRAP_52_6062 (protein)
chain: SEEKIEKLAKEIYEAIKKGDKDKALELLKKAIEELSIEEIRELLIKTAKLVAKGNDEEHELFVEILDEFEDDMIEKGISEEEALLIVGDAEAELAKEVAK
B13: GBRAP_52_6358 (protein)
chain: ALEEALALLREALAAVAAGDEEEARAILEELVATYSEETILAAFERLAEEVADKDVATAEALLETALLLADVMDEAGRDPAVADDIEAIAARTYMAVKAK
B14: GBRAP_160_3967 (protein)
chain: SEEVEALIEEIEELFEEAKELIEGESFEERLTIIRVMVGEVLLLADESPLVSDETEEKIAEIGDELIETLEENPDLSLEEIKELIEEAREKIKEVILEEH
B15: GBRAP_122_2951 (protein)
chain: GSEEEVEKAVEEAMKRAEEGDPAKAILEALREAAERFSEEDLIEFARRLAEEARKRGIEAEAAKAFAEAAIWLLEERPELREAADELLELAIELLDLLEE
B16: GBRAP_184_5290 (protein)
chain: KVKHVVIEAENGEEAIKKIEEEAEKAKKEGVKLDIDLFLKNVNIEEFEKIMKLLKKLKEEGVIKSATVELLDEVSEEELDKFVKIADEAGVKLVVALSDE
B17: GBRAP_11_2858 (protein)
chain: KKEELEKAAELAKKLVEALEELLKKGTDDEKLLKEIRKLAEELLELLKKVGDPAEIKLAEIALEEIEKALKDPENAEEYIQRALAAARVLEGNLLLRIDE
B18: GBRAP_83_6924 (protein)
chain: MEKITVAANDDHIEEAAEAAIDLHKNEGYEVDLEFIITPESVPTLKKAVEKMAKAGLNSDITVLLKGATEEEAEALKAELEAIAAKYGVDWNIEVHLIEP
B19: GBRAP_52_6304 (protein)
chain: MAERAEKLARELLALMLAGDREGAEKLLREIAETFSDEEILALAEALAKLAATLNEEELDAAAELLLMLEDELEEAGVDPGVIAEARGIIITALYKASQA
B20: GBRAP_9_7135 (protein)
chain: MKEIVKKIIEIFEEAREESLKVVPEEYKPLVDKVFDEAIKELKELQKDPNLTKEKLKEKVEELIEEMKEIFRKNLPADVARMVEAILDTAEEEIEEILEE
B21: GBRAP_160_4333 (protein)
chain: SEKVEKLKKFIDEEFEETKKLIEGLTVEQRKVLIEGTFGEIIMELSEEPEVSDELLDYVREVEDETIKTLDENPDLTEEEIKKLIDESREKIIEALEKSE
B22: GBRAP_35_5549 (protein)
chain: DSDREIAEMLVDTIEDIVEALPDVSEEDKIALAKAAIRLARDLVELKPKDEELIKRAIEALERIKEILEESDLPEEDKEELIEEIEELIEELKKLLEENK
B23: GBRAP_52_6242 (protein)
chain: MAARMAKLAAELYALVLAGDWEGAEKLANKIAEELNDEELKIFIDELAALAAKARKEDIDKVWRLAEIVAEALEKAGKPEILVDDLEAKIAAALYKVEKK
B24: GBRAP_35_5573 (protein)
chain: DFDEETVEMLLATIEDLTLAVADMDVETAVAAANAIVKAVRALGEELKDDPEGLERLAKALEKLRDAIEKNYPDDPAAQAAAAAVDAAIKELRELAKKAK
B25: GBRAP_48_5833 (protein)
chain: MPFDEEKLEKLVEEKVEEMKEIYEEAKKEGLSREEILRMIRAELGDLALELEEAGYTKAADYLLDPENRTAVAEKLLELFEEGKYEEAKKYLLDTLKAVE
B26: GBRAP_139_3748 (protein)
chain: MAEEEVRARARALTEALAEDPEAAIARLAELLSSLDEELREAAARAIGETLLAWPWDRAEAFLDALAARLREEHGDEDGAEIVEAEANRTLALIAVREEA
B27: GBRAP_52_6107 (protein)
chain: MREEARRLVEELLELVKEGRLEEARKLIEEKVKEWNDEELRIFGEALAELAREAAPEDLDAVWRLAEMIAEAMEKAGKEEVLADDLLARVAAALYERELR
B28: GBRAP_57_6458 (protein)
chain: MSRLEKVKKAAEELKKLLDADAPKEEIEKALRKLLDLASEEVLLDTLLILDPSTDPDLSLEEVKERLLETIMELLDTEGKEAAKKAIDLIEGQEEALESE
B29: GBRAP_160_4301 (protein)
chain: MENLEKLKKEIKEIAEEAIKLIEGQSPEERLAVVRVAMGNIILEAEENPEISDEAEEEIAEIADAAEATIRANPDLSEEEVKALIKEAEKKVLELIDKLE

Sequence of GABARAP, O95166 (O95166 whole entry, the tested form may be a part): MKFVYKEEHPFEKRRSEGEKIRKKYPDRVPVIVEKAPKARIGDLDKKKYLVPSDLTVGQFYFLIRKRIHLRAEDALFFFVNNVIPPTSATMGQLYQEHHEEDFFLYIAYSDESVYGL

The assay addresses GABARAP, O95166. In words: median log2 fold change of GCK-ALFA target abundance (FLAG IP / Myc IP barcode read proportion) (log2 ratio); each designed protein is fused to an ALFA-tag nanobody in HEK293 cells to bring the named protein to FLAG-tagged glucokinase (GCK); Myc marks an untargeted standard; higher = target protein stabilised (more abundant). The following applies: target protein: 3xFLAG-MCP-GCK-ALFA reporter; HEK293 landing pad (RPLP). The essentials:
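Binders fused to an ALFA nanobody were recombined as a library into HEK293 landing-pad cells, which were induced with 2 μg mL^−1 doxycycline and then transfected to express a FLAG-tagged target and a Myc-tagged standard. After 48 h, circular RNA barcodes recovered by anti-FLAG and anti-Myc immunoprecipitation of lysates were reverse transcribed, amplified and sequenced. Each binder's target abundance is the median log2 ratio of FLAG to Myc barcode read proportions, from barcodes present at ≥10^−7 in both replicates, binders carrying ≥3 barcodes per replicate, a 10^−6 pseudocount and pooled replicates.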
Take B1: the “median log2 fold change” value is -0.153.
As for B2, the “median log2 fold change” value was determined as 0.259.
Then B3, with -0.546; and B4, with 0.0653; and B5, with 0.019.
In the case of B6 it was -0.0567.
Then B7, with 0.19; and B8, with -0.034; and B9, with 0.254.
As for B10, the “median log2 fold change” value is -0.122.
Then B11, with -0.0198; and B12, with -0.215.
Then B13, with -0.632.
In the case of B14 it was -0.498; in that of B15, -0.311.
As to B16, the “median log2 fold change” value worked out at 0.0927.
Consider B17, for which the “median log2 fold change” value amounted to 0.302.
In the case of B18 it was -0.0677; in that of B19, -0.2; in that of B20, 0.231.
Then B21, with 0.135; and B22, with -0.761; and B23, with 0.248.
In the case of B24 it was 0.164.
For B25, the “median log2 fold change” value came out at 0.184.
Then B26, with 0.211; and B27, with 0.0716.
In the case of B28 it was 0.266; in that of B29, 0.114.
